From the supplement of paper PMC8728848
The list shows a part of the results.

Legend:
Assay in all cases: glycan array binding signal (z-score within array); higher = stronger binding
Settings in all cases: glycan notation: IUPAC condensed, linker removed
[1] = target: Fuc(a1-3)[Gal(b1-4)]GlcNAc(b1-3)Gal(b1-4)[Fuc(a1-3)]GlcNAc(b1-3)Gal(b1-4)[Fuc(a1-3)]GlcNAc
Summary of the method: (§1)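 Glycan array data were curated from 3228 arrays in the Consortium for Functional Glycomics database and kept only where the protein sequence was available. Glycan names were converted to IUPAC-condensed notation, and columns mapping to the same glycan were averaged. The binding signal is a within-array Z-score, averaged across arrays of the same protein sequence at different concentrations or buffers and across linkers. Negative Z-scores can be read as non-binding.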

[2] = target: Fuc(a1-3)[Gal(b1-4)]GlcNAc(b1-3)GalNAc
Summary of the method: as §1

[3] = target: Fuc(a1-3)[Gal(b1-4)]GlcNAc(b1-4)Gal(b1-4)[Fuc(a1-3)]GlcNAc
Summary of the method: as §1

[4] = target: Fuc(a1-3)[Gal(b1-4)]GlcNAc(b1-4)Gal(b1-4)[Fuc(a1-3)]GlcNAc(b1-4)Gal(b1-4)[Fuc(a1-3)]GlcNAc
Summary of the method: as §1

[5] = target: Fuc(a1-3)[Gal(b1-4)]GlcNAc(b1-6)GalNAc
Summary of the method: as §1

[6] = target: Fuc(a1-3)[Gal(b1-4)]GlcNAc(b1-6)[Gal(b1-3)GlcNAc(b1-3)]Gal(b1-4)Glc
Summary of the method: as §1

[7] = target: Fuc(a1-3)[Gal(b1-4)]GlcNAc6S
Summary of the method: as §1

[8] = target: Fuc(a1-3)[Gal3S(b1-4)]Glc
Summary of the method: as §1

[9] = target: Fuc(a1-3)[Gal3S(b1-4)]Glc6S
Summary of the method: as §1

[10] = target: Fuc(a1-3)[Gal3S(b1-4)]GlcNAc
Summary of the method: as §1

[11] = target: Fuc(a1-3)[Gal3S(b1-4)]GlcNAc6S
Summary of the method: as §1

[12] = target: Fuc(a1-3)[GalNAc(b1-4)]GlcNAc
Summary of the method: as §1

[13] = target: Fuc(a1-3)[GalNAc(b1-4)]GlcNAc6S
Summary of the method: as §1

[14] = target: Fuc(a1-3)[Neu5Ac(a2-3)]Gal(b1-4)GlcNAc(b1-3)GalNAc
Summary of the method: as §1

Fuc(a1-4)GlcNAc = target: Fuc(a1-4)GlcNAc
Summary of the method: as §1

Fuc(b1-3)GlcNAc = target: Fuc(b1-3)GlcNAc
Summary of the method: as §1

Gal(a1-2)Gal = target: Gal(a1-2)Gal
Summary of the method: as §1

Gal(a1-3)Gal = target: Gal(a1-3)Gal
Summary of the method: as §1

Gal(a1-3)Gal(b1-3)GlcNAc = target: Gal(a1-3)Gal(b1-3)GlcNAc
Summary of the method: as §1

[15] = target: Gal(a1-3)Gal(b1-3)GlcNAc(b1-2)Man
Summary of the method: as §1

[16] = target: Gal(a1-3)Gal(b1-3)GlcNAc(b1-2)Man(a1-3)[Gal(a1-3)Gal(b1-3)GlcNAc(b1-2)Man(a1-6)]Man(b1-4)GlcNAc(b1-4)GlcNAc
Summary of the method: as §1

[17] = target: Gal(a1-3)Gal(b1-3)GlcNAc(b1-3)GalNAc
Summary of the method: as §1

[18] = target: Gal(a1-3)Gal(b1-3)GlcNAc(b1-6)GalNAc
Summary of the method: as §1

[19] = target: Gal(a1-3)Gal(b1-3)[Fuc(a1-4)]GlcNAc(b1-2)Man(a1-3)[Gal(a1-3)Gal(b1-3)[Fuc(a1-4)]GlcNAc(b1-2)Man(a1-6)]Man(b1-4)GlcNAc(b1-4)GlcNAc
Summary of the method: as §1

Gal(a1-3)Gal(b1-4)Glc = target: Gal(a1-3)Gal(b1-4)Glc
Summary of the method: as §1

Gal(a1-3)Gal(b1-4)GlcNAc = target: Gal(a1-3)Gal(b1-4)GlcNAc
Summary of the method: as §1

[20] = target: Gal(a1-3)Gal(b1-4)GlcNAc(b1-2)Man
Summary of the method: as §1

[21] = target: Gal(a1-3)Gal(b1-4)GlcNAc(b1-2)Man(a1-3)[Gal(a1-3)Gal(b1-4)GlcNAc(b1-2)Man(a1-6)]Man(b1-4)GlcNAc(b1-4)GlcNAc
Summary of the method: as §1

[22] = target: Gal(a1-3)Gal(b1-4)GlcNAc(b1-3)GalNAc
Summary of the method: as §1

[23] = target: Gal(a1-3)Gal(b1-4)GlcNAc(b1-6)GalNAc
Summary of the method: as §1

[24] = target: Gal(a1-3)Gal(b1-4)[Fuc(a1-3)]GlcNAc
Summary of the method: as §1

[25] = target: Gal(a1-3)Gal(b1-4)[Fuc(a1-3)]GlcNAc(b1-2)Man(a1-3)[Gal(a1-3)Gal(b1-4)[Fuc(a1-3)]GlcNAc(b1-2)Man(a1-6)]Man(b1-4)GlcNAc(b1-4)GlcNAc
Summary of the method: as §1

Gal(a1-3)GalNAc = target: Gal(a1-3)GalNAc
Summary of the method: as §1

[26] = target: Gal(a1-3)[Gal(a1-4)]Gal(b1-4)GlcNAc
Summary of the method: as §1

[27] = target: Gal(a1-4)Gal(b1-3)GlcNAc(b1-2)Man(a1-3)[Gal(a1-4)Gal(b1-3)GlcNAc(b1-2)Man(a1-6)]Man(b1-4)GlcNAc(b1-4)GlcNAc
Summary of the method: as §1

Gal(a1-4)Gal(b1-4)Glc = target: Gal(a1-4)Gal(b1-4)Glc
Summary of the method: as §1

Gal(a1-4)Gal(b1-4)GlcNAc = target: Gal(a1-4)Gal(b1-4)GlcNAc
Summary of the method: as §1

B1: MGL6A (Homo sapiens) (protein)
chain: MTRTYENFQYLENKVKVQGFKNGPLPLQSLLQRLCSGPCHLLLSLGLGLLLLVIICVVGFQNSKFQRDLVTLRTDFSNFTSNTVAEIQALTSQGSSLEETIASLKAEVEGFKQERQAVHSEMLLRVQQLVQDLKKLTCQVATLNNNGEEASTEGTCCPVNWVEHQDSCYWFSHSGMSWAEAEKYCQLKNAHLVVINSREEQNFVQKYLGSAYTWMGLSDPEGAWKWVDGTDYATGFQNWKPGQPDDWQGHGLGGGEDCAHFHPDGRWNDDVCQRPYHWVCEAGLGQTSQESH
[1]
  glycan array binding signal (z-score): -0.267
[2]
  glycan array binding signal (z-score): -0.265
[3]
  glycan array binding signal (z-score): -0.371
[4]
  glycan array binding signal (z-score): -0.024
[5]
  glycan array binding signal (z-score): 0.377
[6]
  glycan array binding signal (z-score): -0.265
[7]
  glycan array binding signal (z-score): -0.278
[8]
  glycan array binding signal (z-score): -0.269
[9]
  glycan array binding signal (z-score): 0.598
[10]
  glycan array binding signal (z-score): -0.364
[11]
  glycan array binding signal (z-score): -0.308
[12]
  glycan array binding signal (z-score): 1.89
[13]
  glycan array binding signal (z-score): 2.36
[14]
  glycan array binding signal (z-score): -0.336
Fuc(a1-4)GlcNAc
  glycan array binding signal (z-score): -0.316
Fuc(b1-3)GlcNAc
  glycan array binding signal (z-score): -0.263
Gal(a1-2)Gal
  glycan array binding signal (z-score): -0.182
Gal(a1-3)Gal
  glycan array binding signal (z-score): -0.263
Gal(a1-3)Gal(b1-3)GlcNAc
  glycan array binding signal (z-score): -0.146
[15]
  glycan array binding signal (z-score): -0.253
[16]
  glycan array binding signal (z-score): -0.251
[17]
  glycan array binding signal (z-score): -0.279
[18]
  glycan array binding signal (z-score): 4.29
[19]
  glycan array binding signal (z-score): -0.221
Gal(a1-3)Gal(b1-4)Glc
  glycan array binding signal (z-score): -0.253
Gal(a1-3)Gal(b1-4)GlcNAc
  glycan array binding signal (z-score): -0.256
[20]
  glycan array binding signal (z-score): -0.268
[21]
  glycan array binding signal (z-score): -0.225
[22]
  glycan array binding signal (z-score): -0.274
[23]
  glycan array binding signal (z-score): 4.16
[24]
  glycan array binding signal (z-score): -0.211
[25]
  glycan array binding signal (z-score): -0.273
Gal(a1-3)GalNAc
  glycan array binding signal (z-score): -0.223
[26]
  glycan array binding signal (z-score): -0.293
[27]
  glycan array binding signal (z-score): -0.27
Gal(a1-4)Gal(b1-4)Glc
  glycan array binding signal (z-score): 0.34
Gal(a1-4)Gal(b1-4)GlcNAc
  glycan array binding signal (z-score): -0.271
